Common to all, as to test: pull-down; GST fusion proteins on glutathione-Sepharose beads incubated with in vitro translated [35S]methionine-labelled DRB4 for 4 h at 4°C; washed with extraction buffer (150 mM NaCl, 100 mM Tris pH 7.5, 0.5% NP40); autoradiography; only the target purified
Experiment [1] concerns the target T1, GST-CDC20-2 (Arabidopsis) (UniProt Q9S7I8).
T1 sequence: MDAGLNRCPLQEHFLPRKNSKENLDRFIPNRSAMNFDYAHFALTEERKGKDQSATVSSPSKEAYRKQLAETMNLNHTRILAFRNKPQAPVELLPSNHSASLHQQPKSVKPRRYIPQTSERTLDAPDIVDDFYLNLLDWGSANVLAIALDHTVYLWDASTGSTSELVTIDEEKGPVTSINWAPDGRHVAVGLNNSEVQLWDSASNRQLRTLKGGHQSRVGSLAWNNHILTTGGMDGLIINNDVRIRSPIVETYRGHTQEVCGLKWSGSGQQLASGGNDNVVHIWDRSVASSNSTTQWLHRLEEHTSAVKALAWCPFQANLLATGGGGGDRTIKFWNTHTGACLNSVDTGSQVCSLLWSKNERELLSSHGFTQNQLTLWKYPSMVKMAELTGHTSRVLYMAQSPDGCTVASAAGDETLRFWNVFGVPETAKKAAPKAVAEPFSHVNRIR

Experiment [2] deals with T2, GST-CDC20-1 (Arabidopsis) (UniProt Q9SZA4).
T2 sequence: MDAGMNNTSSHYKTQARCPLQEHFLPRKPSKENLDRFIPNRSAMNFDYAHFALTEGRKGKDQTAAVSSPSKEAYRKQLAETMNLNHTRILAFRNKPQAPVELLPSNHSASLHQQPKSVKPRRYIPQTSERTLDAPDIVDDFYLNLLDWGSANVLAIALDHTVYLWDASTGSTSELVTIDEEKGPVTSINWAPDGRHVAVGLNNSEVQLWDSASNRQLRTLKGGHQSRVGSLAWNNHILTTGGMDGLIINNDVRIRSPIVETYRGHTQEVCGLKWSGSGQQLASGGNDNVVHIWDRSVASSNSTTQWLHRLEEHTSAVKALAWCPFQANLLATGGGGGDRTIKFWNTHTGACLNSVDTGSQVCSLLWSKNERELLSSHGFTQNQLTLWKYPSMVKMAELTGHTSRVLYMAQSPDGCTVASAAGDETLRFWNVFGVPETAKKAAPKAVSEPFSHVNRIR

Another experiment deals with T3, GST-APC10 (Arabidopsis) (UniProt Q9ZPW2).
T3 sequence: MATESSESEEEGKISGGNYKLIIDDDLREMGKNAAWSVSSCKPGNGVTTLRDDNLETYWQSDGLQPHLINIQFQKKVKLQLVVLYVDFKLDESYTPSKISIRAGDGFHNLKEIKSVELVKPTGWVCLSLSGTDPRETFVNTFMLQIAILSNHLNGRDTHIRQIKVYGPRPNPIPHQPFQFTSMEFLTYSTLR

Experiment [3] deals with T4, GST-CDC20-3 (Arabidopsis) (UniProt Q9S7H3).
T4 sequence: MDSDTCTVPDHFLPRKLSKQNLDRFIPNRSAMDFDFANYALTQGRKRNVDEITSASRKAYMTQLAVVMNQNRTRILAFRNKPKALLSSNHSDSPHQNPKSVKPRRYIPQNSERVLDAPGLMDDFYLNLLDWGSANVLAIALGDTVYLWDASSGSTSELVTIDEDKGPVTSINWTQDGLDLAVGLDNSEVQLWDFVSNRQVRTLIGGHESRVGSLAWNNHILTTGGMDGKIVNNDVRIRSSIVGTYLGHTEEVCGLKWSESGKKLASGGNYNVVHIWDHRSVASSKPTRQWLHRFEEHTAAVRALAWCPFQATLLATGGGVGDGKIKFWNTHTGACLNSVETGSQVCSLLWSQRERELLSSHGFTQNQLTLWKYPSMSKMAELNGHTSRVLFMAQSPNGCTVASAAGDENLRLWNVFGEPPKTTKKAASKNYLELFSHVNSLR

No constants are given. Whether binding was seen depends on the method and setting. In cells and extracts the contact can be indirect. Some results given as binding are weak or reduced against the parent protein; the word gives no strength. Sequences can lack the tags named with a protein.

Consider one molecule from paper PMC3335838.

B1: [35S]methionine-labelled DRB4 (protein, UniProt Q8H1D4 1-355)
chain: MDHVYKGQLQAYALQHNLELPVYANEREGPPHAPRFRCNVTFCGQTFQSSEFFPTLKSAEHAAAKIAVASLTPQSPEGIDVAYKNLLQEIAQKESSLLPFYATATSGPSHAPTFTSTVEFAGKVFSGEEAKTKKLAEMSAAKVAFMSIKNGNSNQTGSPTLPSERQEDVNSNVKSSPQEIHSQPSSKVVMTPDTPSKGIKVNEDEFPDLHDAPASNAKEINVALNEPENPTNDGTLSALTTDGMKMNIASSSLPIPHNPTNVITLNAPAANGIKRNIAACSSWMPQNPTNDGSETSSCVVDESEKKKLIMGTGHLSIPTGQHVVCRPWNPEITLPQDAEMLFRDDKFIAYRLVKP
modifications: [35S]methionine-labelled
Consider B1, for which the binding result in experiment [1] is given as “no binding”; in experiment [2], “no binding”; with GST-APC10 (Arabidopsis), “binds”; in experiment [3] it was “no binding”.
